Source: article PMC4336329 (PLoS ONE, 2015)
Out of some 310,000 compounds screened, about 14,000 (4.5%) showed an effect of 50% or more. The effect is printed as a negative number. Some of the results follow.

The compounds below were run against human ether-à-go-go-related gene (hERG) potassium channel (human, UniProt Q12809) (assay: primary screen, population patch clamp on CHO cells stably expressing hERG).
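Also: peak tail current of the secondary pulse compared with the same well before compound.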

Chain of human ether-à-go-go-related gene (hERG) potassium channel (Q12809 whole entry, looked up): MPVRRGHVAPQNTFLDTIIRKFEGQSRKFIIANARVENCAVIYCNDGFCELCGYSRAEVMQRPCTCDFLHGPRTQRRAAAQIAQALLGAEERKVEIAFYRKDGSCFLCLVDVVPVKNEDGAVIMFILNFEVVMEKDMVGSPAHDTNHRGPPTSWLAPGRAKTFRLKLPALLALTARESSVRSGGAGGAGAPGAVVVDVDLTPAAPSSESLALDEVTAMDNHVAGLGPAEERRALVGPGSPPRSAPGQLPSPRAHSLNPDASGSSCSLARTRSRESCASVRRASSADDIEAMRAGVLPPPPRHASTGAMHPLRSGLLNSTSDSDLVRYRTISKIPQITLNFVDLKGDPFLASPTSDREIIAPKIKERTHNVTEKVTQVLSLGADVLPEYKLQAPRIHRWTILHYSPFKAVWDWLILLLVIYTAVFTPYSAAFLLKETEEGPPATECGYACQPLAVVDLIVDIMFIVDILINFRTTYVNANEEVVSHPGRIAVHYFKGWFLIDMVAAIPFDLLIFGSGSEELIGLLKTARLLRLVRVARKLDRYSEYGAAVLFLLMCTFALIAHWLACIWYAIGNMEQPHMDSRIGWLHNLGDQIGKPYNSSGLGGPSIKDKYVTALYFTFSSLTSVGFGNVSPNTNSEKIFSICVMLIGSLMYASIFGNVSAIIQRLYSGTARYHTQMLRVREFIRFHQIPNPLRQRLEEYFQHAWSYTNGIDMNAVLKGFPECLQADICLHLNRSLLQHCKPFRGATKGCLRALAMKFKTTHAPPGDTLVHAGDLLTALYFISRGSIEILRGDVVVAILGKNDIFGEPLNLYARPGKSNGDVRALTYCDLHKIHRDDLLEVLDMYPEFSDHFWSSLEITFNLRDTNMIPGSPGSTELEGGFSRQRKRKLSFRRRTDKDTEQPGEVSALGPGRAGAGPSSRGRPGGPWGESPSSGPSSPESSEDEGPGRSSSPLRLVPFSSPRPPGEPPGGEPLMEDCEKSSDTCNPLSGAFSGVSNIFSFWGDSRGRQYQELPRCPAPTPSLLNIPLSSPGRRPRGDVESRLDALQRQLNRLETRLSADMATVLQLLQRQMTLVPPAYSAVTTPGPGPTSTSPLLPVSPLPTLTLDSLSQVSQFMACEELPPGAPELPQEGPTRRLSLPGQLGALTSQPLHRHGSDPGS

Structure (SMILES) | hERG current change (%, negative = inhibition) at 10uM [%]
Cc1ccc(NC(=O)CN(C)C(=O)CCC(=O)N2CCOCC2)cc1 | 8.36
CN(C)S(=O)(=O)c1ccc(N2CCCC2)c(C(=O)Nc2ccccc2)c1 | -23.5
Cc1ccc(S(=O)(=O)N2CCC(C(=O)OCCOc3ccccc3)CC2)cc1C | -28.2
CCN1C(=O)N[C@@H](c2ccccc2)[C@@H](C(=O)OC)[C@H]1C | 4.69
O=C(CNc1cccc(S(=O)(=O)N2CCOCC2)c1)N1CCc2ccccc21 | -4.96
Cc1ccc(N2CCN(S(=O)(=O)N(C)C)CC2)cc1Cl | 6.03
CS(=O)(=O)N(CC(=O)N1CCCCC1)c1ccc2c(c1)OCO2 | 7.89
CC1(C)S[C@@H]2C(C(=O)OCc3ccccc3)NC(=O)N2C1C(=O)OCc1ccccc1 (some centres unmarked) | -3.95
O=C(NC(=O)c1ccc(C(F)(F)F)cc1)Nc1ccc(-c2cnco2)cc1 | 8.64
NC(=O)NC(=O)COC(=O)c1ccc(OC(F)F)cc1 | 19
Cc1nc2c(Br)c3nc(C(F)(F)F)[nH]c3c(Br)c2[nH]1 | -4.86
c1ccc2c(c1)OCC(CNCC1COc3ccccc3O1)O2 (centres unmarked) | 3.12
CN1CCSc2ccc(C(=O)NCc3ccccc3F)cc21 | -12.7
O=C(CSc1nnc(-c2cccnc2)n1Cc1ccco1)c1ccc(Cl)c(Cl)c1 | -45.2
COCc1cc(=O)n2[nH]c(-c3cccc(Br)c3)cc2n1 | -24.2
O=C(NCc1cccs1)C1CCCN(S(=O)(=O)c2cccs2)C1 (centres unmarked) | -3.12
CCOc1ccc(S(=O)(=O)n2ccc(C)n2)c2ccccc12 | 11
Cc1cccc(NC(=O)Cn2cnc3c(oc4nc5c(cc43)COC(C)(C)C5)c2=O)c1 | -37.8
Cc1c(NC(=O)NC(C)N2C(=O)C3C4C=CC(C4)C3C2=O)c(=O)n(-c2ccccc2)n1C (centres unmarked) | 13
O=C(O)Cn1c(=O)c(-c2ccccc2)nc2ccccc21 | 29.8
COC(=O)C1(C(C[N+](=O)[O-])c2ccco2)C(=O)NCC1c1ccccc1 (centres unmarked) | 7.1
CC(C)C[C@H](NC(=O)OC(C)(C)C)C(=O)N1CCC(C(=O)N[C@@H](Cc2ccccc2)C(=O)O)CC1 | 6.19

Structure (SMILES) | hERG current change (%, negative = inhibition) at 10uM [%]
OCC[C@H]1C[C@@H](O)[C@H](O)[C@@]2(CCCCO2)O1 | -2.89
O=C(NCCc1ccccc1)N1CCCC(CNS(=O)(=O)Cc2ccccc2)C1 (centres unmarked) | 2.17
CCOC(=O)N1CCC(=NNc2ccc(S(=O)(=O)N3CCOCC3)cc2[N+](=O)[O-])CC1 | -61.3
COCCNC(=O)C(C(=O)c1ccc(F)cc1)n1cc(C)ccc1=O (centres unmarked) | 33.4
CCS(=O)(=O)N1CCC(NC(=O)c2cc(OC)cc(OC)c2)CC1 | 7.08
CN=C(NC#N)SCC(=O)c1ccc(Cl)cc1Cl | 4.39
Cc1cc(C)c(S(=O)(=O)NCCc2ccccc2)c(C)c1 | -12
CC1CCCCN1S(=O)(=O)c1ccc2[nH]c(=O)cc(C(=O)NCCCN3CCCCCC3)c2c1 (centres unmarked) | 17
COc1ccc(NC(=O)c2ccc(-c3ccc(-c4noc(C)n4)cc3C)cc2)cc1N1CCN(C)CC1.Cl | -76
CCOc1ccccc1-c1nc(-c2cc3ccc(C)cc3[nH]c2=O)no1 | 2.23
CCOc1ccccc1C(=O)Nc1cccc(-c2nnc(-c3ccccc3)o2)c1 | -22.7
Cc1cc(C)c(C)c(OCC(=O)NCCN(C)C)c1 | -13.7
Cc1ccc(Cl)c(OC(=O)C2CSC3(C)CCC(=O)N23)c1 (centres unmarked) | 7.37
COc1ccc(C(=O)NCCc2ccccc2)cc1[N+](=O)[O-] | -8.86
COc1ccc(N(CC(=O)NCCc2ccccc2)C(=O)CCC(=O)Nc2ccccn2)cc1 | -0.661
COc1ccc(CCN(C)C(=O)c2c(C)noc2C)cc1OC | 6.39
COc1cccc(OCc2nnc(-c3cccs3)o2)c1 | 1.99
O=C(CSc1nnc(NC(=O)c2ccccc2[N+](=O)[O-])s1)NCC1CCCO1 (centres unmarked) | 5.83
COc1ccc(NC2=CC(=O)CC(c3ccc(C)cc3)C2)c(OC)c1 (centres unmarked) | -28.8
O=C(COC(=O)c1nn(-c2ccccc2)c(=O)c2ccccc12)NC1CCS(=O)(=O)C1 (centres unmarked) | -3.24
O=c1cccc2n1CC1CC2CN(CC(O)CN2CC3CC(C2)c2cccc(=O)n2C3)C1 (centres unmarked) | 16.4
O=[N+]([O-])c1ccc(N2CCCCC2)c(-c2nn[nH]n2)c1 | -26.6

Structure (SMILES) | hERG current change (%, negative = inhibition) at 10uM [%]
CCCN1CCC(NC(=O)Nc2ccc(OC)c(OC)c2)CC1 | 7.36
O=[n+]1c2c(n([O-])c3c1CCCC3)CCCC2 | -1.8
CN(C)N1C(N)=C(C#N)C(c2ccc(F)cc2)C2=C1CCCC2=O (centres unmarked) | -8.49
C/C(=N\S(=O)(=O)c1ccc(C)cc1)N1CCN(S(=O)(=O)c2ccccc2)C1 | -23.6
O=C1CCCc2c1cc(C(=O)NC1CCSC1=O)c(=O)n2-c1ccccc1 (centres unmarked) | 8.6
COc1ccc(C(=O)Nc2cnn(Cc3c(F)cccc3Cl)c2)cc1OC | -2.79
Clc1ccc(-c2nnc3sc(Cc4cccs4)nn23)cc1 | 4.77
COc1cccc(CN2CCN(c3cccc(C(F)(F)F)c3)CC2)c1OC | -23.9
CC(Oc1ccc(F)cc1)C(=O)Nc1ccc(S(=O)(=O)NC2=NCCCCC2)cc1 (centres unmarked) | -17.5
CCOc1ccc(C(C(=O)NCC2CCCO2)N(Cc2ccccc2)C(=O)c2snc(C(N)=O)c2N)cc1 (centres unmarked) | 5.26
CC(=O)c1ccc(S(=O)(=O)Nc2ccc(-c3cn4c(n3)SCC4)cc2)cc1 | -9.76
COc1cc(NC2=CC(=O)CC(C)(C)C2)cc(OC)c1OC | -8.44
COC(=O)c1cc([N+](=O)[O-])ccc1N1CCN(Cc2ccccc2)CC1 | -72.2
CC1(C)CC(=O)C=C(c2ccc3ncccc3c2)C1 | -0.907
Cc1cccc(NC(=O)c2ccc(COc3cccc4ccccc34)o2)n1 | 6.41
CN(CCO)c1cnccn1 | 22
COc1cc(/C=N\Nc2ccc([N+](=O)[O-])cn2)ccc1OCC(=O)O | 8.63
Cc1oc2c(c(C)cc3oc(=O)c(CC(=O)N[C@@H](CCCNC(N)=O)C(=O)O)c(C)c32)c1C | 29.7
Cc1nn(-c2ccccc2)c2c1C(c1cccnc1)N1C=C(S(=O)(=O)N3CCCCC3)C=CC1=N2 (centres unmarked) | -25.2
Cc1c(/C(Cc2ccccc2)=N/O)c2ccccc2n1C | -5.26
Cc1ccc(N(C(=O)c2csnn2)C(C(=O)NC2CCCCC2)c2ccccn2)cc1C (centres unmarked) | -4.55
CCOC(=O)C1CCN(C(c2ccc(OC)c(OC)c2)c2sc3nc(C)nn3c2O)CC1 (centres unmarked) | 9.76

Structure (SMILES) | hERG current change (%, negative = inhibition) at 10uM [%]
O=C1c2ccccc2C(=O)N1CCOc1ccccc1Cl | 23.8
O=C(NC(c1ccccc1)c1cc(Cl)c2cccnc2c1O)c1cccnc1 (centres unmarked) | -2.27
COC(=O)c1ccc(OCC(=O)Nc2ccsc2C(=O)OC)cc1 | 5.73
O=c1[nH]c(SCc2ccccc2Cl)nc2c1CCCC2 | 7.18
O=C(O)/C=C\c1cn(-c2ccccc2)nc1-c1cc2ccccc2o1 | 35.9
Cc1nc(Nc2ccc(O)cc2)c2c3c(sc2n1)CCCC3 | -20.3
O=C(c1ccco1)N1CCN(Cc2cc(=O)c(OCc3ccccc3)co2)CC1 | -25.5
CCCCN(C)C(=O)C1CCN(C/C(C)=C/c2ccccc2)CC1.O=C(O)C(=O)O | -73.4
CCCn1cc([C@@H]2C[C@H]3CN(Cc4cccc(Cl)c4)C(=O)[C@]34CCCN24)c(C)n1 | -67.3
Cn1nc(C(C)(C)C)c([N+](=O)[O-])c1C(=O)NCCO | -0.284
O=C(OCc1ccccc1Cl)c1ccc(-n2cnnc2)cc1 | -22.9
Cc1ccc(Cl)cc1N1C(=O)CC(C)(C)CC1=O | 19.3
O=C1OC(c2ccc(F)cc2)=C/C1=C\c1ccc(O)cc1 | 21.3
CSc1ncccc1C(=O)N1CCN(S(=O)(=O)c2ccc(F)cc2)CC1 | 11.8
O=C(O)C1CCC(CNS(=O)(=O)c2ccc(Cl)cc2)CC1 (centres unmarked) | 32.1
CSc1nnc(C)c(=O)n1COC(=O)COc1ccc(Cl)cc1 | 9.15
COc1ccc(CN2C(=O)C(O)(CC(=O)c3ccc4c(c3)OCO4)c3ccccc32)cc1OC (centres unmarked) | -11.2
CCOC(=O)CNC(c1ccccc1)c1cc(Br)ccc1NC(C)=O (centres unmarked) | -19
CCCN1CNc2c(c(=O)[nH]c(=S)n2-c2ccc(Cl)cc2)C1 | -1.46
Cc1cccc(-n2nnnc2SCC(=O)NCCN2C(=O)CSC2=O)c1 | -24
